Results on 3 compounds are retold here after PubChem BioAssay (NCI).

The structures appear in SMILES notation.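 Growth conditions: 96-well plates. Treatment: test compound, 48 hours, 5 concentrations. Analysis: linear interpolation between bracketing concentrations; unreached endpoints set to highest concentration. TGI: concentration producing complete growth inhibition.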 For part of its entries the source gives two or more results. Only these are listed. There may be further records. A record mostly stands for its own series of concentrations, which the source does not state; a value can be the end of its range. *1 amine or outer side, *2 acyl side, *3 side chain or, on linkers, in order; H or OH if unused. Where a SMILES comes first, the peptide text is derived from it. Bridges are numbered along the chain shown (N, C = ends). Roman numbers before positions name the chains, in order. [ ]: non-standard residue; d: D form. Actinocin(1to9) = Cc1c2oc3c(C)ccc(C(=O)[*:2])c3nc-2c(C(=O)[*:1])c(N)c1=O; NMeV = CN[CH](C(=O)O)C(C)C; Sar = CNCC(=O)O

Among the test systems are CAKI-1 renal; MOLT-4 leukemia; CCRF-CEM leukemia; DMS 114 small cell lung; OVCAR-5 ovarian; SF-268 CNS; MCF7 breast; EKVX NSCLC; IGROV1 ovarian; RPMI-8226 leukemia; A549 NSCLC; HCC-2998 colon; TK-10 renal; SN12C renal; NCI-H522 lung; NCI-H226 lung; SK-MEL-5 melanoma; K-562 leukemia; UACC-62 melanoma.
Common to all, as to test: growth of human tumour cells (NCI), 48 h

As for `CC[C@@]1(O)C(=O)OCc2c1cc1n(c2=O)Cc2cc3cc(O)ccc3nc2-1`, the TGI in the assay with CAKI-1 renal was 23.1 nM and 693 nM; in the assay with MOLT-4 leukemia, 23.7 nM and 1.06 µM; with CCRF-CEM leukemia, 10.9 nM and 1.37 µM; in the assay on DMS 114 small cell lung it was 1.18 µM and 71.1 nM; with OVCAR-5 ovarian, 240 nM and 8.86 µM; in the assay with SF-268 CNS, 61.1 nM [mean of 3 tests] and 3.2 µM [mean of 5 tests]. The TGI with MCF7 breast was 3.55 µM and > 100 µM; in the assay on EKVX NSCLC, 1.05 µM and 29.2 µM.

For `COc1ccc(CC2NC(=O)C(NC(=O)c3c4nc5c(C(=O)NC6C(=O)NC(Cc7ccc(OC)cc7)C(=O)N7CCCC7C(=O)N(C)CC(=O)N(C)C(C(C)C)C(=O)OC6C)ccc(C)c5oc-4c(C)c(=O)c3N)C(C)OC(=O)C(C(C)C)N(C)C(=O)CN(C)C(=O)C3CCCN3C2=O)cc1` (centres undefined) (I: TY(Me)P[Sar][NMeV] / II: TY(Me)P[Sar][NMeV]; ester I:1-I:C, II:1-II:C; linker I:N-II:N via Actinocin(1to9); configuration not given here), the TGI with IGROV1 ovarian was 28.4 nM and 1.24 µM; in the assay with RPMI-8226 leukemia, < 1 nM and > 100 µM; in the assay on A549 NSCLC, 5.77 µM and > 100 µM; in the assay with HCC-2998 colon, 1.03 µM and > 100 µM; in the assay with TK-10 renal, 2.55 µM and 84 nM; in the assay with SN12C renal, 365 nM and > 100 µM.

For the compound `O=C1NC(c2cccc3ccccc23)Nc2ccc(Cl)cc21` (centres undefined), the TGI in the assay on NCI-H522 lung is 7.51 nM and 1.32 µM; in the assay with NCI-H226 lung it was 43 nM and 26.5 µM; with SK-MEL-5 melanoma, 34.5 nM and 432 nM; in the assay with K-562 leukemia it was 1.45 nM and > 100 µM; with UACC-62 melanoma, 2.9 nM and 51 µM.
